Assay results taken from the supplement of paper PMC3334620.
The full ranking holds about 33,000 sequences; the median of “E-score (-0.5 to 0.5)” is about -0.012, and the highest 2% start at about 0.29. This is one part of the list.

Target: T1, Ybr033w (UniProt P38073)
T1 sequence: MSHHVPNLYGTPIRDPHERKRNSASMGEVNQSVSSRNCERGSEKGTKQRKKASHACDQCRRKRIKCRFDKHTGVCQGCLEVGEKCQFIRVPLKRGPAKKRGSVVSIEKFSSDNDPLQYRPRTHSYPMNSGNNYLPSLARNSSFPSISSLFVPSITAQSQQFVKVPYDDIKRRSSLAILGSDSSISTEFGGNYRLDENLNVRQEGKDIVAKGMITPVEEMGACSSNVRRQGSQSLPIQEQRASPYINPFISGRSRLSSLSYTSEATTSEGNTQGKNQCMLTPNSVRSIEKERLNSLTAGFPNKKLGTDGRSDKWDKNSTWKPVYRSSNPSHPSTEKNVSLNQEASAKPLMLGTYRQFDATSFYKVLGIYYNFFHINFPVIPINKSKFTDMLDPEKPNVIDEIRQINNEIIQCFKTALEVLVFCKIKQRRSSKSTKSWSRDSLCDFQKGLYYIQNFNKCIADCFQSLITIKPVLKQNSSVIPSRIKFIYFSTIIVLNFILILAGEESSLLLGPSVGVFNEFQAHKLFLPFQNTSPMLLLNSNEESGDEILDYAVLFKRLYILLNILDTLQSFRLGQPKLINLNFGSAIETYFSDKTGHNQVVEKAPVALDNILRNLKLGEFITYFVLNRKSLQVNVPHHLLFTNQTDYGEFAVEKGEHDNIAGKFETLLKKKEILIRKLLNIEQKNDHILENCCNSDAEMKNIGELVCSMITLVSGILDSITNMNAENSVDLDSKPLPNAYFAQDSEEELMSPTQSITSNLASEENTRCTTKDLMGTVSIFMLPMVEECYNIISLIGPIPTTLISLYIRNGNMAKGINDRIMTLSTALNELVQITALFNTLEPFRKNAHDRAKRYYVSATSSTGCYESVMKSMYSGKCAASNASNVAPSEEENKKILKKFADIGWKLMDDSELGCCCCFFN
Assay: PBM E-score (8-mer binding enrichment) (E-score (-0.5 to 0.5)); higher = stronger / more preferred TF binding; most listed sequences are background and not binding sites
Details: protein concentration: 200 nM; construct: GST-full length
How it was run: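 Full-length yeast transcription factors or their DNA-binding domains, GST-tagged and expressed with PURExpress, were applied at about 100-200 nM to universal all-10-mer Agilent arrays. These arrays had been made double-stranded by primer extension on fresh or once-stripped slides. Detection used fluorescent anti-GST, normalisation used masliner, and E-scores for ungapped eight-base words pooled with reverse complements came from the Universal PBM Analysis Suite.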

Sequence	PBM E-score
GTCGAACA	0.178
ACTTTGAA	0.0876
CACCGCTC	-0.162
ATAAGGGC	-0.114
ATCACCAC	0.12
AGGCAAAC	0.0331
ACTTAGCG	0.123
GTGCACGA	-0.151
CCTTCTCG	-0.244
GGAGTGAC	0.0518
CAGAGAGG	-0.368
ATGATATG	0.208
CATCCTTA	-0.0271
AGAAGGGG	-0.339
CCGCCTCA	-0.232
CCTGCGCG	-0.0311
CTCTTGGA	0.0916
CCAGGGAG	-0.21
ATTGACTA	0.0245
GGCCGTCA	-0.0923
GAAATCTC	-0.0338
CCACCATA	-0.0728
ACGCTCTG	-0.151
ATTTGATG	0.155
GTCTCCCA	-0.271

Sequence	PBM E-score
CGAAGATA	0.133
ACGTTAAC	0.0452
ACATTCAC	0.191
CTTCGTGA	-0.0962
ATGGGTGC	-0.139
AGGAGTCC	-0.241
AGGATCTC	-0.0981
AAACACTC	0.2
AGCACACA	-0.0313
CAACCGAC	0.107
CTGCACAA	0.0156
GACTGTTA	0.0926
TCTGCACA	-0.0174
AAGCAGGC	-0.157
CTGTTCCA	0.0353
TCGGCACA	-0.0693
GACGGCCC	-0.336
ACCCGGCT	-0.174
ATCATCCG	0.155
CCGAGTTA	-0.0736
AAGGGTAA	0.0407
CCGAACGC	-0.0124
ACACGAGG	-0.0693
CCAGAGGA	0.00251
AAATCAGG	0.0403

Sequence	PBM E-score
GATGGTCA	0.00756
TGCAAGAA	0.148
CCTCCGAG	-0.0756
GGATCGGA	-0.0621
GAATGGAA	0.0458
CTGAACAA	0.119
CTTAGATC	0.0104
CGAAATCG	-0.0537
AGAATTAT	0.201
ACAGCTGA	-0.0675
ACGTCGGA	-0.0678
CGCTCCCG	-0.243
CTGTGCCA	-0.127
CGCGCCGC	-0.144
CATGGACG	-0.0125
ACCAACCC	-0.158
AGTCGGGC	-0.14
ACTGCTCC	-0.113
GGAGCTGA	-0.16
CTTAAAAA	0.138
AGGTTCAG	0.145
CTTCCTCC	-0.13
AACGCGTG	0.0968
CTAAGCTA	0.121
AAGTCACC	-0.143

Sequence	PBM E-score
CGCGCGTC	0.0511
CGCAGCGA	0.0573
ATATGAGG	-0.0116
ATTGTCGC	-0.0319
GAAACGGA	0.187
AAGCAGTG	-0.00323
GGCCACAA	-0.037
CGAAGCCC	-0.239
CGCAGGCC	-0.145
GGGTCCCA	-0.244
CCGGCACG	-0.138
AAAGCTAG	0.103
CTCGAGGC	-0.2
CGGCTAAG	-0.233
CCTCTATA	0.0768
ACGAAAAA	0.107
CCCCGCAG	-0.184
ACGGCTAG	-0.105
AACCCATT	0.0701
CCTGATGC	-0.0279
GGTGACTA	0.0708
ACTGTATG	0.12
CGGCCAGA	0.0728
CGTGTAGA	0.121
GGGATCCA	-0.162

Sequence	PBM E-score
CACGTCAC	0.0456
ATATAACG	0.264
CGTACGGC	-0.22
TGCGAGCA	0.0697
CAATATAA	0.284
ATACCCAG	-0.195
ATTGAACA	0.127
CCCGAGAA	0.166
AAGAGTCG	0.0231
AGGTGACG	-0.165
AAACTAGA	0.0392
CTCTACTC	-0.139
AATTCCCA	0.171
GTTAGAGA	-0.076
AGAACTTA	0.246
ATAGGTAC	0.158
CTTTCGAA	-0.0701
AGACCATG	-0.17
ACCTAGGG	-0.138
CGTCAGCC	-0.0427
ATAATACA	0.305
CGAACAAC	0.077
ATAGTCCG	0.0667
GATGGGCC	-0.327
GATGAACC	0.122

Sequence	PBM E-score
GATGGCTA	0.0135
TGAACACA	0.101
TAAGAGAA	-0.00742
AGTCATAG	-0.0665
CCCTTTCG	-0.167
AACTTCAC	0.244
AGTTCTAG	0.0921
AGGCTAGC	-0.19
ATGTAACG	0.0762
AACTGGGG	-0.0685
CAGCCAAG	-0.126
ATACTACC	0.0322
AAAGACAC	0.184
TACCAATA	0.0786
AAAAAGCA	0.246
GAGTTCAC	-0.00821
AAAGGATG	0.163
CCACATAG	0.00684
AAAGTCAC	0.0859
CCCCCTAA	-0.254
TCACTACA	0.243
CTTAGCGC	0.0539
CAGTAAGG	-0.0217
AGAACGAC	-0.0786
AAACGAAT	0.182

Sequence	PBM E-score
GGACCGCC	-0.376
ACCGTGCT	-0.237
AGTATTGG	0.111
CAGGTATG	0.0771
TCGGATCA	0.255
CTCCTGAC	-0.0994
CGCTCGAC	-0.311
ATATCACA	0.0388
AAACGTAA	0.161
CACGGGTA	-0.158
CAAGGGAC	-0.164
AGATGGTA	0.133
AGCGTCTG	-0.232
ATCGTTCC	-0.196
TATTCAGA	0.0954
ACCCTTAG	-0.113
CTGCTAAA	0.00904
CGTGGCGC	-0.259
AGTTACAT	0.0786
GCGGGACA	-0.243
CCCGGACA	-0.034
ACACGCGA	0.00739
TAACGTAA	0.192
ATCCAGCC	-0.103
CTTATGTA	0.161

Sequence	PBM E-score
TAGATTCA	0.0876
CTTTTAAC	0.0274
CAACTAGC	0.189
GTGCGTCA	-0.301
GGTACGCA	0.0659
GTGCCGTA	0.0665
CGGACAGA	-0.139
ATTCAGAG	0.0679
CCGAACTA	-0.0825
CACGAGAC	-0.067
GTCGGTCA	-0.104
CGGGTCAC	-0.102
AAACGGTT	-0.134
ACGCCTAG	-0.052
AGAATCGA	0.0687
CGTATCAG	-0.0405
AAAGTCCG	-0.0892
ACCTCCAT	-0.216
CCCGTTCG	-0.125
AGACTGAA	-0.0303
AACTTGGT	0.168
CCACGGGG	-0.253
GTGAGAAA	0.07
CCGCCAAC	-0.0859
AAAGAGTT	0.146

Sequence	PBM E-score
AAACAACC	0.141
GTTAGAAA	0.00365
CCCGCATA	0.0871
GCCGTACA	0.0471
AGAGAGGA	-0.208
CTTAAGCA	0.0938
ATTTCTGC	0.216
AGCCAATG	-0.0132
ACCGTTAG	0.0369
CCTATTAA	0.139
AATATGAC	0.109
CAGATAAC	0.096
ACTCGTGG	-0.0126
CTCTCAGA	-0.0959
CCCTGCCG	-0.272
GAGGAGGA	-0.25
AATTATTG	0.274
ACCGGTAA	0.106
GTGTCGTA	-0.0564
AACACTAT	0.283
AGTGTCAC	-0.0738
CCGTGCAA	-0.0408
AGAGTAAG	0.126
GGATGACC	-0.217
TACAACTA	0.118

Sequence	PBM E-score
AGCAGCAC	-0.0771
ATGAAACA	0.142
CTGTCGTC	-0.0634
CTGCTGAA	-0.0178
AGGGGTCG	-0.317
GACCAGCC	-0.121
CAGCGTTC	-0.0989
GCATGGAA	0.0876
AATGTATA	0.27
GACCGAGC	-0.204
ACTACTCT	0.0727
ACTGGACA	0.0145
ACGTGACA	0.0317
AGAAACCT	0.184
GTCCGTCA	-0.0633
AGCGTCTA	-0.165
ACACCGAA	0.136
AAAATGGA	0.197
CTTCAAAA	0.218
CAGTCAGC	-0.21
CATGTACG	0.0783
GAATCGAA	0.141
ACTCAATA	0.234
GACCGACA	-0.062
GCAATAAC	0.0794

Sequence	PBM E-score
GCTTTATA	-0.119
AATCGTAC	0.203
AATAGGAC	0.0355
ATAGTATA	0.117
CTCCCTGC	-0.19
ATTGCACG	0.014
GAGGACGA	-0.00639
ACACCTCG	-0.178
TGATGAAA	0.183
GCAGGAAA	0.0701
AGTCTCTA	0.052
AATTAGTA	0.26
CGAAGAAC	0.145
CTCAGTTA	-0.0642
CCGGTAGC	-0.187
CTCTCTCC	-0.21
CGGTCGAG	-0.16
GTGCGAGA	-0.0113
CCCTATGA	-0.0154
CCATTGCG	-0.181
TCATTGGA	0.0341
CTCATTAA	0.23
TGAGACAA	-0.0545
AAGGCACT	-0.0779
GAACCATA	0.0918

Sequence	PBM E-score
CCTTGAAA	0.0714
ATGCGGTG	-0.157
ATAAGCAA	0.252
TGAGTACA	0.0898
ATGAAGAA	0.126
GCTCATAC	-0.0746
GAAAGCCC	-0.114
CTGCGGTC	-0.262
TATGACGA	-0.0767
ATCAAGCA	0.0412
AGTCTATG	-0.0523
ATCCATAG	-0.0877
CCTTAAAA	0.0761
CCAGTATA	-0.0453
GGCTGGTA	-0.15
CCGATTCC	-0.0813
AGTTGTGC	-0.063
AGGTGCAG	-0.186
CCATCGGG	0.0152
ATACTGGC	-0.227
AACGTGGT	-0.046
GATCCACC	-0.128
GAATTCTC	0.0948
AGAGCCCA	-0.155
AGCTTATG	0.0568

Sequence	PBM E-score
CTGGCAAG	-0.103
CAGTAGAG	-0.0987
ATTATCTC	0.256
TAAGGAAA	0.09
AGAGCCGG	-0.169
CGGTTCGA	-0.05
ATTGTTAC	0.248
GGTGCAAC	-0.0953
GAGTCGGA	0.00892
ACGCCGAG	-0.159
AGCTCGCG	0.00996
CACGACCG	-0.325
AGGACGCG	-0.202
AAAAGACG	-0.0341
ACGTCTGC	-0.185
ACAAGTTA	0.185
CCCGCCAA	-0.13
AGCCCAAA	0.149
GGCGCAAA	-0.192
GCCAGAGC	-0.291
CGGGCGGC	-0.359
ACAGCAGT	0.00436
AGAGGGAC	-0.141
CGTGGGTC	-0.307
AAACTCAA	0.201

Sequence	PBM E-score
CGAAGCGA	-0.0591
ATGTTTCC	0.0872
AAGTGACT	0.0868
CCTGGTGA	-0.157
CAATCTCC	0.0409
AACCCGAC	0.056
ACTCCACA	0.089
CTACTCAC	0.0231
ATTCGGGC	-0.0151
AACGGTTG	0.1
GAGTATAA	0.184
TCCCTAAA	0.0945
ACGAATTA	0.153
AGACGGAA	0.0963
AAAGTGAA	0.164
ACCTGAAT	0.239
CCCAATGC	-0.107
CCCTGGTC	-0.238
GTAATTTA	0.218
